# Test results reported in the supplement of paper PMC3334620.
# Over roughly 33,000 sequences, “E-score (-0.5 to 0.5)” has its median near -0.032; the highest 2% begin near 0.36. Some of the results follow.
# Target: T1, Sko1 (UniProt Q02100)
# T1 sequence: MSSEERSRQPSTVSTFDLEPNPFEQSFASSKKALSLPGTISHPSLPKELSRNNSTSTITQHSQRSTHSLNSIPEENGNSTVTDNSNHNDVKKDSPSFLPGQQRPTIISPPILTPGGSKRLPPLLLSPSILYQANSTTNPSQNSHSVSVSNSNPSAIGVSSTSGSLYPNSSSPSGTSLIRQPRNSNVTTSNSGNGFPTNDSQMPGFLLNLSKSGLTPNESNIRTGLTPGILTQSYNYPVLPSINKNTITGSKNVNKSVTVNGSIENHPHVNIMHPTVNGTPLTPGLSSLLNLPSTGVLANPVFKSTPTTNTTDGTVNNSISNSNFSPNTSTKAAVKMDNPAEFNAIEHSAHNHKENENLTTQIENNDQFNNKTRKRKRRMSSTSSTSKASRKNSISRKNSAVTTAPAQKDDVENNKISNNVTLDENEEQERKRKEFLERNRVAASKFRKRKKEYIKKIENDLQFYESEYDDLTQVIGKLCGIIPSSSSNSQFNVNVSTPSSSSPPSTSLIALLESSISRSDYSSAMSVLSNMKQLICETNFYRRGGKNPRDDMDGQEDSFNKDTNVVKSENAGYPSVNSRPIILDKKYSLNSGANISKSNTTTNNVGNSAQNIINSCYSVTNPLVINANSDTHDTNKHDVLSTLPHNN
# Assay: PBM E-score (8-mer binding enrichment) (E-score (-0.5 to 0.5)); higher = stronger / more preferred TF binding; most listed sequences are background and not binding sites
# Settings: protein concentration: 200 nM; construct: GST-full length
# Summary of the method: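 Yeast transcription factors, full-length or as DNA-binding domains, were expressed with a GST tag using PURExpress in vitro transcription/translation. At about 100-200 nM they were applied to universal all-10-mer Agilent arrays, double-stranded by primer extension on fresh or once-stripped slides. Fluorescent anti-GST detected bound protein, and masliner normalised the scans. E-scores for ungapped eight-base words, pooled with reverse complements, came from the Universal PBM Analysis Suite.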
row,Sequence,PBM E-score
1,ACGTCAAC,0.469
2,GATCAGGC,-0.141
3,ATTGAGTG,-0.0538
4,TCCAAGGA,-0.196
5,AGTCTAGA,-0.124
6,ATATCTGC,0.0709
7,ACGATAAA,0.209
8,ACGTCCCT,0.236
9,GTTGACTA,0.0586
10,ACATGTAA,0.26
11,AACTCTCT,-0.2
12,GCCTTGGA,-0.0789
13,AGAGGCTG,-0.273
14,AAAGTAGG,0.112
15,CTCAAACA,0.0238
16,TAGGCCCA,-0.255
17,ACTGCCCG,-0.212
18,ATGTGAAC,0.0666
19,AGCGCTTA,0.0816
20,ACGACAAC,0.274
21,TAAATTAA,0.0975
22,CCTTGATA,0.112
23,ATTGCACC,-0.0136
24,ATCTAGCA,-0.00638
25,GGCGCTTA,-0.323

row,Sequence,PBM E-score
1,ATATTAAT,0.208
2,CACCATTA,0.126
3,ACTGCTTA,-0.0517
4,ATATGACG,0.477
5,CATCTCGG,-0.18
6,AGAGCCAG,-0.21
7,ACCACAGA,-0.0766
8,AAATCGTC,0.245
9,AACCACCA,-0.0654
10,AACGCTTC,0.0266
11,CTAAAGAA,0.126
12,ACCGCGGG,-0.241
13,AGCCGCAT,0.15
14,ATGAAAAG,-0.116
15,CTCTAGAC,-0.155
16,ACATACTA,0.177
17,ACTACCGG,-0.265
18,GCAATGGA,0.0867
19,AAACAAGT,0.045
20,CTGGGGCC,-0.281
21,AGCCCCGC,-0.0755
22,AAGTGGCA,-0.167
23,GATGCCCC,-0.274
24,ATTGACCA,-0.0744
25,TCGCAACA,0.124

row,Sequence,PBM E-score
1,CTGCCTCA,-0.318
2,GATTAGCA,0.0318
3,GTTAAACA,0.212
4,CGCTAATA,0.192
5,ACCTGACG,0.173
6,ACCGGGTG,-0.224
7,ACCGTGAT,0.0739
8,GCACCCCC,-0.0983
9,CTGACCAA,0.0507
10,AGCAACCT,-0.00341
11,GGGGAACC,-0.27
12,TGGTCACA,0.0263
13,AGCAGTAC,-0.0546
14,CTCTCGTA,-0.057
15,ACCACGTC,0.363
16,ACCACATC,0.098
17,ATGTTGAG,0.0946
18,AACTTTGG,0.0225
19,GCAATTCC,-0.104
20,AACAGGTG,-0.15
21,ACAATACC,0.185
22,GGGGTACA,-0.176
23,CCTCAGAC,-0.208
24,CCAAATCG,-0.0738
25,AAATGCAG,-0.121

row,Sequence,PBM E-score
1,GCGCCATA,0.0343
2,AGTTTGCA,-0.00634
3,TCAGGGAA,-0.138
4,TCTTGCCA,-0.00793
5,CACAGATC,-0.0707
6,AATGGGTC,-0.271
7,CGTCGTAA,0.275
8,CCGATCCC,-0.362
9,AAGATTGG,0.0148
10,GGCACGAC,-0.0826
11,AAATTCTG,0.052
12,ACCTAGTG,0.0829
13,CAACTTCC,0.0216
14,AGAGACTA,-0.0943
15,CACAGCTC,-0.158
16,ACCTGTTC,-0.108
17,AAAGACAA,0.208
18,CATGTGGG,-0.0963
19,AACGGTTC,-0.108
20,CACAGTGA,0.0945
21,GTCAGTTA,0.112
22,CCGGCAAA,-0.188
23,GTAATAAA,0.347
24,ACACCATC,0.0405
25,AGCACAAT,0.0688

row,Sequence,PBM E-score
1,ATCTACTG,0.0371
2,GCACGTTA,0.274
3,ACCGACGT,0.376
4,CATTCACA,0.0371
5,ACTTGCTC,-0.156
6,CCCAGGCG,-0.306
7,CTCTTCTC,-0.22
8,ACCATAAT,0.129
9,CATGTTTA,0.165
10,GGAACTGA,-0.208
11,ACGGATAG,0.00602
12,ATGTAAGG,0.0982
13,CCAGAGCC,-0.215
14,GACTAATA,0.123
15,CGCTTCTC,-0.292
16,ACGGCCGA,-0.124
17,CAGCGTCG,-0.103
18,GATCTATA,0.0628
19,CTGGCCAC,-0.101
20,ACCTGTCC,-0.267
21,AGTTAGCC,-0.195
22,CAAACCCG,-0.0847
23,AGTGAACA,0.0913
24,TGGTCGAA,-0.0856
25,TAGAAATA,0.161

row,Sequence,PBM E-score
1,GATTTGTA,0.146
2,GTTGTTGA,0.165
3,CGCTTTAG,-0.00956
4,AGAATGCC,-0.137
5,AATTTTGC,0.118
6,AAGCCCTG,-0.247
7,AATATGCG,0.126
8,GAAATGAC,0.318
9,GCAGGACC,-0.196
10,CCACTATA,0.0141
11,GTTTCCGA,-0.0513
12,CCCATTCG,0.104
13,GCCGGAGC,-0.383
14,CAGCATCG,-0.332
15,AGGGATTC,-0.113
16,CGCTGGCA,-0.109
17,CCATATGC,0.02
18,CCCCATAA,-0.144
19,CCTATTAG,0.0617
20,ACTCGCCG,-0.0899
21,CATCCCGC,-0.0522
22,CAGACTCA,0.0156
23,GTACACCA,-0.0836
24,AGCCGCGA,-0.28
25,ATACGAGG,-0.146

row,Sequence,PBM E-score
1,CGTCGCGC,0.121
2,GGACGATA,0.0228
3,AAACTAGT,-0.079
4,GATTCCGA,-0.184
5,ATGAGCGC,-0.0132
6,AAAGATTA,0.143
7,CGCTCTTC,-0.252
8,GGACAGAA,0.00525
9,CCTAACAG,-0.102
10,TCGCCTAA,-0.0546
11,CATGGCTA,-0.0685
12,GCTTATTA,0.14
13,ACGTTATG,0.419
14,AGCTCATC,-0.186
15,AACTCGAA,0.0158
16,CGCAGTAC,0.118
17,GACGGGCA,-0.145
18,CTTGCTGC,-0.0891
19,CGTTCAAC,0.112
20,GATGCAAC,-0.0594
21,TTAAGGAA,0.0566
22,CTAGATCA,-0.0181
23,ACCGTGAG,-0.208
24,AGGAAAGG,-0.329
25,ACACGAAG,0.147

row,Sequence,PBM E-score
1,AAATGTTC,0.129
2,CTTTGAGA,0.125
3,ATTCCGCA,-0.0897
4,AACCCATG,0.112
5,CAACATTC,-0.167
6,TGCCACAA,0.0326
7,CGTTACGC,0.362
8,CCCCCTTC,-0.4
9,CTAAAAGC,-0.0417
10,AGCGCTTC,-0.0605
11,CAAAATGG,-0.118
12,CCCGAACG,-0.166
13,TAACGGAA,0.0503
14,CACTTGGG,-0.313
15,ACCCGGGT,-0.236
16,CTCGAGGA,-0.0345
17,ACGGGACC,-0.36
18,AAGAGCAT,0.0596
19,ACATGGTG,0.143
20,AGTATCAG,-0.0488
21,ATGGCAAG,-0.123
22,CTGATCCC,-0.269
23,CTACATAG,0.0305
24,AAGCTCAC,-0.141
25,AGATGGCT,-0.102

row,Sequence,PBM E-score
1,CCCCTCGG,-0.141
2,GCTTGCGA,0.0471
3,ATTCATTG,0.0712
4,ACCACGAC,0.128
5,GCCAATAC,-0.0762
6,ATAAGTGA,0.144
7,AGCGTAGA,-0.0243
8,AGCTGCCC,-0.138
9,AATCAGGA,-0.0594
10,ACAACGGA,0.00163
11,ATCACATG,0.0961
12,GACCCGCC,0.0386
13,AATTGAAT,0.103
14,CCACCACC,-0.219
15,ATCCGCGG,-0.0772
16,CTACCACC,-0.201
17,GTGACCCA,-0.0483
18,CGTGCACG,0.259
19,GATGTTTA,0.128
